Assay results taken from article PMC11524019 (Cell Communication and Signaling : CCS, 2024).

Biological target: Flag-human Sam68 purified protein (human, UniProt Q07666)
Experiment: pull-down

UniProt Q07666, sequence (Q07666 whole entry): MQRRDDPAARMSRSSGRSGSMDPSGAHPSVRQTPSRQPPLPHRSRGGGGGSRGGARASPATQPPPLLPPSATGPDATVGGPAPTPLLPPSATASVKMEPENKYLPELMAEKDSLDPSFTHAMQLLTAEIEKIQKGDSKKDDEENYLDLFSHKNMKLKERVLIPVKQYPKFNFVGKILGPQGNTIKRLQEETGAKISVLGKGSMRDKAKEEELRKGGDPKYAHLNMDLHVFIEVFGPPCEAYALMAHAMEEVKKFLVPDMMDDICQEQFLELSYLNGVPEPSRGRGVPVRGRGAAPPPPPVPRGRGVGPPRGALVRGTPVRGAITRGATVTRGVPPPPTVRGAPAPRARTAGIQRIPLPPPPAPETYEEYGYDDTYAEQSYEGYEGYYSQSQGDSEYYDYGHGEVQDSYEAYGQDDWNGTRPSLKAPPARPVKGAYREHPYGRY

binding result: binds
B1: recombinant human IPMK purified protein (enzyme)
chain: not shown
